A collection of fitness landscapes (doi:10.1126/science.1257360)
The list shows a part of the results.

B1: PhoQ; a variant is named by its letters at X, in order, P23837 (parent)
chain: MKKLLRLFFPLSLRVRFLLATAAVVLVLSLAYGMVALIGYSVSFDKTTFRLLRGESNLFYTLAKWENNKLHVELPENIDKQSPTMTLIYDENGQLLWAQRDVPWLMKMIQPDWLKSNGFHEIEADVNDTSLLLSGDHSIQQQLQEVREDDDDAEMTHSVAVNVYPATSRMPKLTIVVVDTIPVELKSSYMVWSWFIYVLSANLLLVIPLLWVAAWWSLRPIEALAKEVRELEEHNRELLNPATTRELTSLVRNLNRLLKSERERYDKYRTTLTDLTHSLKTPLXXLQXXLRSLRSEKMSVSDAEPVMLEQISRISQQIGYYLHRASMRGGTLLSRELHPVAPLLDNLTSALNKVYQRKGVNISLDISPEISFVGEQNDFVEVMGNVLDNACKYCLEFVEISARQTDEHLYIVVEDDGPGIPLSKREVIFDRGQRVDTLRPGQGVGLAVAREITEQYEGKIVAGESMLGGARMEVIFGRQHSAPKDE

Variants of: B1
Experiment: enrichment ratio after two sorts for PhoP signalling (ratio (wild type AVST 3.29)); higher = more functional
Conditions: with PhoP (E. coli)

Variant	enrichment ratio
MHSN	≤ 0.25
TLDV	≤ 0.25
IQRM	≤ 0.25
HMIS	≤ 0.25
TSIV	1.78
TNAV	27.6
VLFY	≤ 0.25
ADLI	16.8
QYMI	≤ 0.25
AWTC	≤ 0.25
NDKV	≤ 0.25
FIRF	≤ 0.25
HYKI	≤ 0.25
HQIN	≤ 0.25
PGDC	≤ 0.25
YCRA	≤ 0.25
DCHR	≤ 0.25
SYKA	≤ 0.25
HQYH	≤ 0.25
TAFT	≤ 0.25
ERMS	≤ 0.25
DYQC	≤ 0.25
GQDS	≤ 0.25
QKAP	≤ 0.25

Variant	enrichment ratio
VYAN	≤ 0.25
NVMR	≤ 0.25
MYEL	≤ 0.25
SQPM	≤ 0.25
MYIH	≤ 0.25
PNFF	≤ 0.25
DDWN	≤ 0.25
MYPP	≤ 0.25
PQCK	≤ 0.25
RGWH	≤ 0.25
CSSF	≤ 0.25
MCWN	16.1
THLY	0.451
SQMI	7.19
AGYI	0.303
KRYY	≤ 0.25
AKSS	8.3
EASH	≤ 0.25
GRAD	≤ 0.25
RRIN	≤ 0.25
EVEM	≤ 0.25
DHKY	≤ 0.25
YPDY	≤ 0.25
IGIL	≤ 0.25

Variant	enrichment ratio
APAQ	≤ 0.25
LDQE	≤ 0.25
HRSS	≤ 0.25
GDHE	≤ 0.25
MMSD	≤ 0.25
QNCV	≤ 0.25
HKCP	≤ 0.25
VMME	≤ 0.25
NQGF	≤ 0.25
SLWN	≤ 0.25
ISYN	≤ 0.25
PLVA	≤ 0.25
AAVM	6.25
FQVF	≤ 0.25
AMLA	2.05
HTNA	≤ 0.25
HVHI	≤ 0.25
YKSK	≤ 0.25
GQRK	≤ 0.25
IAWC	≤ 0.25
CGFH	≤ 0.25
EVKI	≤ 0.25
MCYL	13
PVLF	0.26

Variant	enrichment ratio
SKAI	14
IIDY	≤ 0.25
DNEC	≤ 0.25
VRPS	≤ 0.25
YEEF	≤ 0.25
WLKK	≤ 0.25
IENY	≤ 0.25
QLMT	≤ 0.25
KMVG	≤ 0.25
TEHM	58.9
IGSL	≤ 0.25
WCVK	≤ 0.25
EYHT	≤ 0.25
FGDN	≤ 0.25
NTGR	≤ 0.25
FFHM	0.397
NAPR	≤ 0.25
HFSD	≤ 0.25
RDDA	≤ 0.25
AFVP	≤ 0.25
SRGH	≤ 0.25
YDIF	≤ 0.25
DMNW	≤ 0.25
PQFM	≤ 0.25

Variant	enrichment ratio
EVKH	≤ 0.25
VVSH	1.4
FNYC	≤ 0.25
GTGQ	≤ 0.25
QSNF	5.26
APWI	≤ 0.25
VFHM	≤ 0.25
LETC	≤ 0.25
ERSL	≤ 0.25
NFTK	≤ 0.25
FCYP	≤ 0.25
DNSY	≤ 0.25
TYSW	≤ 0.25
YTFM	≤ 0.25
TEEN	3.06
TDAY	0.283
MRNT	≤ 0.25
RHVL	≤ 0.25
IEVS	3.53
HGRM	≤ 0.25
LAHK	≤ 0.25
IGEP	≤ 0.25
KAIG	≤ 0.25
PNAE	≤ 0.25

Variant	enrichment ratio
VNEF	≤ 0.25
DFRM	≤ 0.25
SESR	4.3
GIKS	≤ 0.25
KSMN	≤ 0.25
YHKE	≤ 0.25
TRRF	≤ 0.25
LSKY	≤ 0.25
TLHR	≤ 0.25
DTMT	≤ 0.25
DHEI	≤ 0.25
YTEL	≤ 0.25
QSIW	≤ 0.25
KHPR	≤ 0.25
IHTR	≤ 0.25
HRLT	≤ 0.25
FETH	≤ 0.25
QHHS	≤ 0.25
PLNR	≤ 0.25
GTGN	≤ 0.25
GFPW	≤ 0.25
GMAS	2.92
HKFS	≤ 0.25
IQEG	≤ 0.25

Variant	enrichment ratio
PELC	≤ 0.25
LRMS	≤ 0.25
DPNW	≤ 0.25
VEYI	≤ 0.25
HPRA	≤ 0.25
GSLE	1.76
DQRR	≤ 0.25
VENY	≤ 0.25
FMLV	≤ 0.25
NRVS	0.327
YFPT	0.681
LSWP	≤ 0.25
NGMQ	≤ 0.25
DFIQ	≤ 0.25
QHGF	5.15
RTND	≤ 0.25
QMVM	≤ 0.25
RVLE	≤ 0.25
APVT	≤ 0.25
RGNV	≤ 0.25
MPIC	≤ 0.25
TWPR	≤ 0.25
AASS	5.47
PIWA	≤ 0.25

Variant	enrichment ratio
WMCA	≤ 0.25
RWGL	≤ 0.25
YYSQ	≤ 0.25
TYYL	≤ 0.25
TWST	≤ 0.25
TVPH	≤ 0.25
WALW	≤ 0.25
DKAN	≤ 0.25
RRQI	≤ 0.25
LHNY	≤ 0.25
PQKI	≤ 0.25
TENH	9.29
YIMS	≤ 0.25
SDML	6.69
EAIH	≤ 0.25
MSNG	≤ 0.25
YYFC	≤ 0.25
FTRQ	≤ 0.25
QDCE	≤ 0.25
PGVP	≤ 0.25
ITAL	0.733
RLWW	≤ 0.25
GQNF	≤ 0.25
EHWY	≤ 0.25

Variant	enrichment ratio
LVFV	≤ 0.25
WWLV	≤ 0.25
HQVD	≤ 0.25
ARQM	≤ 0.25
HFDM	≤ 0.25
HFAE	≤ 0.25
WLFT	≤ 0.25
TFGS	1.72
MFKY	≤ 0.25
IPLL	≤ 0.25
NGYN	≤ 0.25
TDNA	≤ 0.25
LQYY	≤ 0.25
FKTH	≤ 0.25
EFRG	≤ 0.25
KCYF	≤ 0.25
QERM	≤ 0.25
MVPM	≤ 0.25
YYVE	≤ 0.25
EFLV	≤ 0.25
NAHE	≤ 0.25
ATPN	≤ 0.25
FWDE	≤ 0.25
GYGP	≤ 0.25

Variant	enrichment ratio
SHLF	8.04
PRVT	≤ 0.25
AMRI	≤ 0.25
DSTW	≤ 0.25
QESA	≤ 0.25
HHGC	≤ 0.25
VFMG	≤ 0.25
IARK	≤ 0.25
YDPR	≤ 0.25
VSDF	≤ 0.25
FYDG	≤ 0.25
SGMI	25
DNCH	≤ 0.25
SEHK	≤ 0.25
LFGA	≤ 0.25
MGPD	≤ 0.25
NVAW	≤ 0.25
MLIT	≤ 0.25
ASWP	≤ 0.25
DGNR	≤ 0.25
WSRG	≤ 0.25
KESA	≤ 0.25
EQRL	≤ 0.25
NTYI	≤ 0.25

Variant	enrichment ratio
YMSY	≤ 0.25
GTNK	≤ 0.25
IFNH	≤ 0.25
SSAD	≤ 0.25
TKAE	≤ 0.25
PVHE	≤ 0.25
TVHY	0.821
ANCI	19.9
KDNT	≤ 0.25
EVYI	≤ 0.25
MQGR	≤ 0.25
TATF	8.91
MIPG	≤ 0.25
DARS	≤ 0.25
RSSC	≤ 0.25
RYNA	≤ 0.25
TQFA	≤ 0.25
LMTE	≤ 0.25
FMMR	≤ 0.25
RYET	≤ 0.25
GVRL	≤ 0.25
TRVL	11.6
TDQG	1.47
YIPV	0.333

Variant	enrichment ratio
RVKY	≤ 0.25
RRTQ	≤ 0.25
LWHV	≤ 0.25
LDAC	≤ 0.25
RHDC	≤ 0.25
MKVF	≤ 0.25
DVMG	≤ 0.25
EIKF	≤ 0.25
GGCQ	13.2
SDTT	≤ 0.25
IGKE	≤ 0.25
KHNY	≤ 0.25
RCYE	≤ 0.25
SREQ	≤ 0.25
YYKD	≤ 0.25
DHDL	≤ 0.25
DMLM	≤ 0.25
RDGW	≤ 0.25
HETI	0.579
NQCV	≤ 0.25
HFAV	≤ 0.25
RMWI	≤ 0.25
SAEY	≤ 0.25
ITYM	≤ 0.25

Variant	enrichment ratio
HDHP	≤ 0.25
FEEC	≤ 0.25
IEKH	≤ 0.25
QNFS	≤ 0.25
FQHM	≤ 0.25
HPNK	≤ 0.25
WASW	≤ 0.25
PRPL	≤ 0.25
TRWW	≤ 0.25
SDFK	≤ 0.25
LWPA	≤ 0.25
DIQV	≤ 0.25
EINI	≤ 0.25
RSRE	≤ 0.25
HSCH	≤ 0.25
QDMV	7.48
TKGS	1.16
TDIM	10.7
